# Measurements from PubChem BioAssay AID1671193 (National Center for Advancing Translational Sciences (NCATS), 2021).
# About 180 (0.12%) of roughly 150,000 compounds were called active. This list was built around the results that the source calls inconclusive (neither active nor inactive); the mix of calls is not that of the screen. The call rests on the fitted dose curve; in most records, active means well fitted cell-killing curve with a large enough effect; inconclusive means small, poorly fitted or top-dose-only effect, or effect the other way; inactive means flat fitted curve, though single readings scatter. Potencies beside an inconclusive call are fits to weak or partial responses and may not hold up.
# Assay: GF-AFC viability counterscreen for inhibitors of alpha-synuclein gene (SNCA) expression; further: nearly all actives have a fitted effect of over 30% in size
# Details: HEK-293-SNCA-luc viability, GF-AFC fluorescence, 24 h; series mostly up to 57.1 µM
# Procedure, shortened: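 HEK-293-SNCA-luc cells (1500/well) plated 24 h, then exposed 24 h to a dilution series; GF-AFC added 30 min at 37C, fluorescence 405/540 nm; normalised to medium-only and DMSO wells, Hill fit.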
# Potency means the concentration at half of the fitted maximal effect; tags describe the fitted curve by direction and shape.
row,Compound,Potency
1,CN1CCC2(CCCN(Cc3cc4n(n3)CCCNC4)C2)C1 (centres undefined),inactive
2,COCC(=O)N1CCCC1C(=O)N1CCC(N2Cc3cccn3C2=O)CC1 (centres undefined),inactive
3,CC1=C[C@@H](CN(C)CCc2ccccn2)[C@H](C(C)C)C[C@H]1Cc1nnc(-c2ccccc2F)o1,"inconclusive: 22.4 µM [cytotoxic, single point]"
4,Cc1nc(NC2CCCCC2)ncc1C(=O)O,"inconclusive: 39.8 µM [rising, single point]"
5,CSc1ccc(-c2cccc(C(=O)NCC(=O)NCc3ccccc3F)c2)cc1,"inconclusive: 6.31 µM [cytotoxic, single point]"
6,CCOC(=O)c1cnc2c(ccc3ccccc32)c1Nc1ccc(Cl)cc1,inactive
7,COc1cccc(Nc2ncc3c(n2)C(C)(C(=O)NCc2ccc4c(c2)OCO4)CC3)c1 (centres undefined),"inconclusive: 28.2 µM [cytotoxic, partial curve, poor fit]"
8,Cc1nn2c(c1-c1ccccc1OCc1ccccc1)N(C(=O)C(C)C)CCC2,inactive
9,COc1ccccc1CN1Cc2cc(NC(=O)Cc3ccc(F)cc3)ccc2OC(C)C1=O (centres undefined),inactive
10,Cn1ncc2c(C(=O)NCc3ccncc3)cc(-c3ccc(F)cc3)nc21,inactive
11,Cc1ccc(-n2nc(CO)c(C(=O)NCCCc3ccccc3)n2)cc1,inactive
12,COc1ccc(-n2c(=O)c3ccccc3n(Cc3ccccc3C)c2=O)c(OC)c1,"inconclusive: 7.08 µM [cytotoxic, partial curve, poor fit]"
13,COc1cccc(CN2CCNc3cc(-c4ccccc4)ncc3C2)c1,"inconclusive: 15.8 µM [cytotoxic, partial curve, poor fit]"
14,O=c1c(-c2cc(F)cc(F)c2)nc2cnc(N3CCNCC3)nc2n1Cc1ccc(F)cc1,"inconclusive: 20 µM [rising, partial curve]"
15,O=c1c(-c2cccc(Cl)c2)nc2cncnc2n1Cc1ccccc1Cl,"inconclusive: 39.8 µM [cytotoxic, partial curve, poor fit]"
16,Cc1ccc(C(=O)Nc2onc3c2CCCC3)cc1,inactive
17,COCCn1c(=O)c(-c2cccs2)nc2cnc(Nc3ccccc3)nc21,"inconclusive: 2.24 µM [rising, full curve, poor fit]"
18,COc1cc(OC)c(NS(=O)(=O)c2cc(-c3cnc(C)o3)ccc2OC)cc1Cl,"inconclusive: 10 µM [cytotoxic, partial curve, poor fit]"
19,Cc1csc(Nc2ccc3c(n2)CN(Cc2ccc(F)cc2)C(=O)CO3)n1,"inconclusive: 5.62 µM [cytotoxic, full curve, poor fit]"
20,O=C(Cn1c(=O)n(CC2CCCO2)c(=O)c2ccccc21)Nc1cccc(Cl)c1 (centres undefined),"inconclusive: 7.08 µM [cytotoxic, full curve, poor fit]"

row,Compound,Potency
1,CN(C)C(=O)c1ccc(-c2cc3c(cn2)CN(CCc2ccccc2)CCN3)cc1,inactive
2,C[C@H]1[C@H](O)O[C@@H]2O[C@@]3(C)CC[C@@H]4[C@H](C)CC[C@@H]1[C@@]24OO3,"inconclusive: 13.6 µM [cytotoxic, partial curve, poor fit]"
3,COC(=O)[C@@H]1Cc2c([nH]c3ccccc23)[C@H]2C[C@@H](NCc3ccccc3)C[C@@H](c3ccccc3F)N21,inactive
4,CCN(CC)c1ccc(C(=O)NCc2nnc3cc(-c4nc(C5CC5)no4)ccn23)cc1,"inconclusive: 4.47 µM [cytotoxic, full curve, poor fit]"
5,COc1cccc(NC(=O)c2cc3c(N4CCCC4)nc(C)cn3n2)c1,"inconclusive: 8.91 µM [rising, partial curve, poor fit]"
6,O=C(C1CCCC1)N1Cc2ccccc2CC2(CCCCN2CC2CCNCC2)C1 (centres undefined),"inconclusive: 28.2 µM [cytotoxic, single point]"
7,COc1cc(C)ccc1OCCn1c(-c2ccc(Cl)cc2)nc2ccccc2c1=O,inactive
8,COc1ccc(CCNC(=O)c2ccc3c(c2)N(Cc2cccc(Cl)c2)C(=O)CS3)cc1OC,"inconclusive: 1.78 µM [cytotoxic, full curve, poor fit]"
9,O=C(CC1N=C2c3ccccc3N=C(SCc3ccccc3F)N2C1=O)NCc1ccc2c(c1)OCO2 (centres undefined),"inconclusive: 39.8 µM [cytotoxic, single point]"
10,O=C1c2[nH]nc(-c3ccc(Br)cc3)c2C(c2cccc(O)c2)N1c1ccc(Cl)cc1 (centres undefined),"inconclusive: 8.91 µM [cytotoxic, full curve]"
11,CCC[C@@H](NC(=O)N1C(=O)C(CC)(CC)[C@@H]1Oc1ccc(C(=O)N2CCN(C)CC2)cc1)c1ccc2c(c1)OCO2,"inconclusive: 37.7 µM [cytotoxic, single point]"
12,COCC(=O)N[C@@H]1CN(C(=O)c2ccc(F)cc2)CC[C@@H]1CO,"inconclusive: 3.55 µM [cytotoxic, single point]"
13,CCc1cccc(C)c1NC(=O)CSc1nc2ccccc2nc1N1CCOCC1,"inconclusive: 12.6 µM [cytotoxic, partial curve, poor fit]"
14,N=c1n(CCN2CCCCC2)c2ccccc2n1CC(O)COc1ccc(Cl)cc1Cl (centres undefined),"inconclusive: 39.8 µM [cytotoxic, single point]"
15,Cc1nc(C)c(C(=O)N2CCC3(CC2)CC(N2CCCC2)CCO3)s1 (centres undefined),"inconclusive: 1.58 µM [rising, full curve, poor fit]"
16,Cc1nn(-c2ccc(C(F)(F)F)cc2)c(C)c1[C@@H]1C=C[C@@H](NC(=O)Nc2cccc(C#N)c2)C1,"inconclusive: 25.1 µM [cytotoxic, partial curve, poor fit]"
17,O=C1c2[nH]nc(-c3ccccc3O)c2C(c2cccc(Cl)c2)N1Cc1cccnc1 (centres undefined),"inconclusive: 25.1 µM [cytotoxic, partial curve, poor fit]"
18,CCCS(=O)(=O)N1CCCCC1c1nc(-c2cnccn2)n[nH]1 (centres undefined),"inconclusive: 22.4 µM [cytotoxic, partial curve, poor fit]"
19,CCCCN1CC(c2nc3ccccc3n2CCCCOc2ccc(C)c(C)c2)CC1=O (centres undefined),"inconclusive: 17.8 µM [cytotoxic, single point]"
